From ChEMBL document CHEMBL4888484, “Replenishing the malaria drug discovery pipeline: Screening and hit evaluation of the MMV Hit Generation Library 1 (HGL1) against asexual blood stage Plasmodium falciparum ,using a nano luciferase reporter read-out” (2022)
The whole screen tested about 150,000 compounds, of which about 540 (0.36%) showed an effect of 50% or more. Some of the results follow.

Each compound was assayed on Plasmodium falciparum (assay: Primary screen in NF54 nanoGlo assay, in single point, at 2uM, 72h; a lower Z score goes with more inhibition). Settings: timepoint 72 hour.
Format: functional, Erythrocyte

Compound	% Inhibition [%]	Z score
C[C@H]1CCCCN1Cc1ncnn1Cc1cccc(Cl)c1	-6	0.75
CO[C@H]1CN(C2CCN(C(=O)Nc3ccccc3)CC2)[C@H]1c1ccncc1	3	-0.38
Cc1ccc(OC2CCN(S(C)(=O)=O)CC2)nn1	-13	2.51
COC(C)(C)C(=O)[C@H](CC#CCN1CCOCC1)C(=O)c1ccccc1	-4	0.5
C[C@@H]1CN(Cc2cnc3c(-c4ccccc4)cnn3c2)[C@@H](C)CN1	2	-0.29
c1ccc2ncc(Cn3cnnc3)cc2c1	15	-2.01
Cc1cc(C(=O)n2nccc2N)c(C)n1C1CC1	0	-0.02
COc1ccc(CCN2C[C@H](O)C(C)(C)COCCC[C@H]3CN(Cc4ccc(S(C)(=O)=O)cc4)CC[C@H]3CC2=O)cc1	-6	0.97
CC(C)=CCN1C(=O)[C@@H]2CC[C@H]1CN(C(=O)c1ccc[nH]1)C2	-12	2.63
O=C(NC[C@H](NC(=O)N1CCOCC1)C1CCCC1)N1CCOCC1	-5	0.86
C[C@@H]1CN(c2ncnc(-c3ccccc3)n2)CCN(C2CC2)C1	-16	1.73
COc1ccc(-c2nc(N3CCC[C@H]3c3ccc(OC)cc3)[nH]c(=O)c2C#N)cc1	9	-1.84
COC[C@H]1[C@H](NC(=O)CCc2ccc(F)c(F)c2)[C@H]2CCO[C@H]21	-1	0.13
CCCN(Cc1c(C(C)C)nn(-c2ccccc2)c1Oc1cccc(F)c1)C(=O)C1CCC1	-4	0.66
CC(C)(C(=O)NCCc1ccccn1)c1nccs1	-7	0.92
O=S(=O)(c1ccc(Br)c(S(=O)(=O)N2CCCCC2)c1)N1CCCCC1	-6	1.07
COC(C)(C)CNC(=O)N[C@@H](CO)c1cc(F)c(F)c(F)c1	-4	0.67
O=C(Nc1nc2c(s1)CCC2)C1CCC1	-9	1.19
COc1ccc(CC(=O)Nc2c[nH]c(=O)nc2O)cc1	0	-0.03
CC(C)(CO)NC(=O)c1cnn(-c2ncc3c(n2)-c2ccccc2CCC3)c1C1CC1	-16	2.25
CN(CCCNS(C)(=O)=O)c1cccc2c1CCCN2CCCNS(C)(=O)=O	-6	0.57
Cc1cccc(S(=O)(=O)N[C@H](C(=O)O)C(C)C)c1Cl	-8	1.1

Compound	% Inhibition [%]	Z score
C[C@@H](C1CCCCC1)n1c(CN)n[nH]c1=O	-6	0.58
CC[C@H](NC(=O)c1coc(Cn2cnc3ccccc32)n1)c1ccc(C)cc1	11	-1.42
Cc1ccc(C)c(-n2nc(C3CCOCC3)nc2CCc2cnccn2)c1	-14	1.33
Cc1nc(C(C)(C)NCc2nnnn2C2CC2)sc1C	8	-1.07
COc1cccc([C@H](C)N(C)Cc2nc(-c3cccs3)no2)c1	-9	1.11
CCN1C[C@H](NC(=O)COCc2ccc(OC)cc2)C(C)(C)C1	-8	0.88
CC(Nc1ccc2c(c1)NC(=O)C(C)O2)C(=O)N1CCOCC1 (configuration not stated)	-4	0.73
Cn1cc([C@@H](NC(=O)COc2ccc(F)cc2)C2CC(O)C2)cn1 (some centres not stated)	-19	1.89
CNC(=NCC1(Cc2ccccc2)CC1)NC	-4	0.7
CC(C)n1nccc1-c1nnc(NC(=O)c2cccs2)o1	-16	3.05
Cc1ccc(CN2CC[C@H](c3sccc3C)[C@@H](O)C2)cc1	-11	2.3
CCN(CCCNc1cncc(Br)c1)S(C)(=O)=O	-15	2.36
CCCc1nc(-c2cc3cc(C)ccc3nc2NCc2ccco2)no1	15	-1.82
CCCN(C(=O)c1cccs1)C1CCN(C(=O)[C@@H]2COCCO2)CC1	1	-0.12
CC(CCc1ccc2c(c1)OCO2)NC1CCS(=O)(=O)C1 (configuration not stated)	-8	1.32
N#Cc1c(NC(=O)CC(=O)Nc2sc3c(c2C#N)CCCCC3)sc2c1CCCCC2	3	-0.47
O=C1[C@H](c2ccncc2)N(Cc2ccccc2)C(=O)CN1c1ccccc1	29	-3.24
CCC[C@H]1CN(C(=O)CCc2c(C)n[nH]c2C)C[C@@H]1N(C)C	-15	1.66
CCCc1cc([C@@H]2CCCN2Cc2cccnc2)no1	-13	1.81
CC(C)=C(F)C(=O)N1CC[C@H](CO)C[C@@H]1C	36	-0.69
Cc1c(S(=O)(=O)N(C)[C@H](C)c2cccnc2)cnn1C	5	-0.72
Cc1c(Cl)cccc1N1CCCN(C(=O)c2ccnn2C)CC1	-11	1.87

Compound	% Inhibition [%]	Z score
O=C(c1ccncc1)N1CCC[C@@H]1Cn1ccnc1	2	-0.39
O=C(NC1(c2ccccc2)COC1)[C@H]1CCc2[nH]ncc2C1	-10	1.9
C#CCCC1(CCC(=O)N2CCc3ccc(F)cc3[C@@H](C)C2)N=N1	-15	1.91
FC(F)(F)c1cccc(Cn2nc(-c3ccccc3)c3oc4ccccc4c32)c1	-15	1.76
Cc1ccccc1C(=O)N1CC(=O)N2CCc3ccccc3[C@@H]2C1	-4	0.56
Cn1nc(CN(C(=O)c2ccsc2)C2CCCC2)cc1C1CC1	16	-2.05
COc1ccccc1CC(=O)N1CC[C@H](Oc2ccncc2Cl)C1	-6	1.14
Cc1cc(NC(=O)C(c2ccccc2)c2ccccc2)sn1	0	-0.02
O=C(COc1ccc(F)c(F)c1)N1CCOC[C@H]1c1ccco1	2	-0.44
O=S(=O)(c1ccc2c(c1)CCO2)N1CCC[C@@H]1Cn1nccn1	-4	0.72
Cc1ccc(Cl)cc1NS(=O)(=O)c1ccc(-c2nnc(C3CCC3)o2)s1	-10	1.42
CN(CC1CCCCC1)[C@H]1CCc2nn(C)c(=O)n2CC1	-4	0.67
COc1cccc(Cl)c1CC(=O)N[C@@]1(C)CCOC1	6	-0.77
CC(C)OCC[C@H]1CCCCN1C(=O)c1cccc(C(=O)O)n1	32	-3.23
CCCn1c(C)cnc1[C@H]1CCN(C(=O)NCc2ccc(C)cc2)C1	-6	0.97
COc1ccc(CNc2cn(C)nc2-c2ccncc2)cc1Br	0	-0.03
COCc1sccc1C(=O)NC[C@H]1CC(C)(C)CO1	-1	0.18
COC(=O)CC(C)(C)CC(=O)N(C)[C@H]1CCS(=O)(=O)C1	-7	0.88
CC(C)(C)CC1(NC(=O)CCCn2cnnn2)CC1	-7	1.32
O=C(N[C@H]1CCCc2occc21)c1ccncc1	-2	0.17
C[C@H](O)C1CCN(C(=O)CCc2ccncc2)CC1	-7	0.91
COc1cccc([C@H](CN2CCN(S(=O)(=O)c3c(C)nn(C)c3Cl)CC2)OCc2cccc(Cl)c2)c1	15	-2.02

Compound	% Inhibition [%]	Z score
O=C1CC(c2ccccc2)=NN1c1c(Cl)cc(Cl)cc1Cl	-21	2.87
Cn1cc(Br)c(Cn2cnc3c(c2=O)CCC3)n1	1	-0.15
CC[C@H]1CCCCN1CC(=O)N(C)Cc1[nH]c2ccccc2c1C	-2	0.34
O=C(c1nccn1Cc1ccccc1)N1CCCCCC1	-18	3.07
CC1CCN(C(=O)CNc2ccc(C3CC3)c(F)c2)CC1	-7	0.72
C[C@H]1CCCCN1CCCNC(=O)c1csc(NC(=O)c2ccccc2F)n1	-3	0.41
COc1cc(OC)cc(C(=O)N2CCN(Cc3cc(C)no3)CC2)c1	-5	0.78
O=C(CCc1nc(-c2ccc3cc[nH]c3c2)no1)N1CCOCC1	-17	2.1
COCCN(CC(=O)N(Cc1ccc(C)cc1)C1CCN(S(C)(=O)=O)CC1)S(=O)(=O)c1ccccc1	-16	2.18
O=C(CN1CCC(c2ccccn2)CC1)N1CCCCC1	-8	1.19
COC(=O)c1ccc(Cn2cnc3c2c(=O)n(CC2CC2)c(=O)n3-c2ccccc2)cc1	1	-0.16
N#Cc1ncn(CCc2cc(Cl)c3c(c2)OCCCO3)c1C#N	-7	0.71
CCN(CC(F)(F)F)C(=O)Nc1cccc(N2CCCC2)c1C	-8	0.94
CCc1nc(C#N)cc(N2CCC[C@@H]2CS(C)(=O)=O)n1	-2	0.21
NC(=O)c1ccc(S(=O)(=O)c2ccc(C(N)=O)s2)s1	-5	0.67
CC(C)(C)c1cnc(NC(=O)Nc2c[nH]nn2)s1	0	-0.02
CNc1nnc(CC(=O)N2Cc3ccccc3OC3(CCC3)C2)s1	-10	1.49
CC[C@@H](CO)NC(=O)Cc1ccc(NCc2ccc(C)o2)cc1	-2	0.3
Cn1nc(C(F)F)cc1C(=O)NCC[C@H]1CCCOC1	-5	0.88
N/C(CCN1C(=O)c2ccccc2C1=O)=N\OC(=O)C1CCCN2CCCCC12 (configuration not stated)	-16	2.68
